Drawing on the supplement of paper PMC4967469, this text covers AUC and IC50 for 51 cell lines.

Assay in all cases: Viability of human cancer cell lines after 72 h of drug (GDSC screen)
Compound in test [1]: C=CC(=O)Nc1cccc(Nc2nc(NC3CCC(N(C)C)CC3)nc3c2ncn3C(C)C)c1 [WZ3105]
The following applies: top dose inferred. How it is done:
(§1)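 Human cancer cell lines in 384-well plates, medium with 10% serum, drug for 72 h over a 256-fold dose range (nine 2-fold or five 4-fold steps up to the top dose). Adherent lines were fixed and stained with the nucleic acid dye Syto60, suspension lines read with resazurin; signal relative to control wells, capped at 0 and 100%. One two-parameter sigmoid per drug and line, fitted in a mixed model over all curves with the slope shared within a line.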

Compound in test [2]: Cc1cccc(-c2[nH]c(C(C)(C)C)nc2-c2ccc3c(c2)OCO3)n1 [SB-505124]
Particulars: top dose 10 µM; top dose inferred. The method, then:
as §1

Compound in test [3]: COc1cc2c(NC3CCN(C(C)C)CC3)nc(C3CCCCC3)nc2cc1OCCCN1CCCC1 [UNC0638]
The method, then:
as §1

The mark [4] stands for this setting: top dose 20 µM, screen: GDSC drug entry 1236, top dose inferred.
[5] abbreviates: top dose 40 µM, screen: GDSC drug entry 245.

In general, IC50 refers to the concentration that inhibits the measured activity by half.

By IC50 is meant the dose at which the fit gives 50% viability; fits outside the tested doses are given as limits. For AUC the same curve is integrated over the 256-fold range of doses and scaled to a fraction; it is 1 without any effect and falls as sensitivity rises. A top dose marked as inferred comes from the curve model; the source does not state it. For some assays here: Drugs with an entry number were screened twice under separate entries, and the two screens often disagree.

For the cell line “8-MG-BA (glioma, adherent, top dose 1.28 µM)”, in test [1], the AUC came to 0.741 and the IC50 was found to be 372 nM.

For “22RV1 (prostate, adherent, top dose 1.28 µM)”, in test [1], the AUC was 0.75 and the concentration for half-maximal inhibition (IC50) was 510 nM.

On to “42-MG-BA (glioma, adherent, top dose 1.28 µM)”, for which, in test [1], the AUC is 0.891 and the IC50 was over 1280 nM.

Take “201T (lung adenocarcinoma, adherent, top dose 1.28 µM)”: in test [1], the AUC stood at 0.808 and the IC50 was determined as 878 nM.

For “451Lu (melanoma, adherent, top dose 1.28 µM)”, in test [1], the AUC turned out to be 0.895 and the IC50 is over 1280 nM.

With “639-V (bladder, adherent, top dose 1.28 µM)”, in test [1], the AUC was determined as 0.854 and the IC50 amounted to 782 nM.

In the case of “647-V (bladder, adherent, top dose 1.28 µM)”, in test [1], the AUC was determined as 0.841 and the IC50 came to 895 nM.

Consider “697 (lymphoblastic leukaemia, suspension, top dose 1.28 µM)”, for which, in test [1], the AUC worked out at 0.457 and the IC50 was found to be 62.6 nM.

In the case of “769-P (kidney, adherent, top dose 1.28 µM)”, in test [1], the AUC came out at 0.916 and the IC50 was over 1280 nM.

For “786-0 (kidney, adherent, top dose 1.28 µM)”, in test [1], the AUC amounted to 0.856 and the IC50 turned out to be 904 nM.

For the cell line “5637 (bladder, adherent, top dose 1.28 µM)”, in test [1], the AUC is 0.706 and the IC50 amounted to 286 nM.

Turning to “8305C (thyroid, adherent, top dose 1.28 µM)”, in test [1], the AUC is 0.916 and the IC50 is over 1280 nM.

Consider “8505C (thyroid, adherent, top dose 1.28 µM)”, for which, in test [1], the AUC amounted to 0.751 and the IC50 is 444 nM.

“23132-87 (stomach, adherent, top dose 1.28 µM)”: in test [1], the AUC stood at 0.853 and the IC50 is 1050 nM.

Take “A3-KAW (B-cell lymphoma, suspension, top dose 1.28 µM)”: in test [1], the AUC stood at 0.758 and the IC50 was determined as 364 nM.

Consider “A4-Fuk (B-cell lymphoma, suspension, top dose 1.28 µM)”, for which, in test [1], the AUC came to 0.972 and the IC50 was over 1280 nM.

For “A101D (melanoma, adherent, top dose 1.28 µM)”, in test [1], the AUC came to 0.96 and the IC50 is over 1280 nM.

Consider “A172 (glioma, adherent, top dose 1.28 µM)”, for which, in test [1], the AUC came to 0.755 and the 50% inhibitory concentration (IC50) is 420 nM.

As to “A204 (rhabdomyosarcoma, adherent, top dose 1.28 µM)”, in test [1], the AUC is 0.735 and the IC50 was 463 nM.

Turning to “A253 (head and neck, adherent, top dose 1.28 µM)”, in test [1], the AUC amounted to 0.897 and the IC50 is over 1280 nM.

On to “A375 (melanoma, adherent, top dose 1.28 µM)”, for which, in test [1], the AUC is 0.909 and the IC50 was determined as 1230 nM.

On to A388 (skin, adherent, top dose 1.28 µM), for which, in test [1], the AUC came out at 0.833 and the IC50 was 1000 nM.

Regarding “A427 (non-small cell lung carcinoma, adherent, top dose 1.28 µM)”, in test [1], the AUC came out at 0.81 and the IC50 worked out at 680 nM.

For the cell line A431 (skin, adherent, top dose 1.28 µM), in test [1], the AUC was 0.748 and the IC50 was 398 nM.

Regarding “A498 (kidney, adherent, top dose 1.28 µM)”, in test [1], the AUC is 0.96 and the IC50 is over 1280 nM.

Take “A673 (rhabdomyosarcoma, adherent, top dose 1.28 µM)”: in test [1], the AUC amounted to 0.852 and the IC50 was 839 nM.

In the case of “A704 (kidney, adherent, top dose 1.28 µM)”, in test [1], the AUC came out at 0.989 and the IC50 is over 1280 nM.

In the case of “A2058 (melanoma, adherent, top dose 1.28 µM)”, in test [1], the AUC was 0.903 and the IC50 is over 1280 nM.

As for “A2780 (ovary, semi-adherent, top dose 1.28 µM)”, in test [1], the AUC came out at 0.537 and the IC50 amounted to 101 nM.

In the case of “ABC-1 (lung adenocarcinoma, adherent, top dose 1.28 µM)”, in test [1], the AUC is 0.748 and the IC50 was 485 nM.

“ACHN (kidney, adherent, top dose 1.28 µM)”: in test [1], the AUC amounted to 0.977 and the IC50 was over 1280 nM.

As for “AGS (stomach, adherent, top dose 1.28 µM)”, in test [1], the AUC was determined as 0.885 and the IC50 came out at 1150 nM.

With “ALL-PO (lymphoblastic leukaemia, suspension, top dose 1.28 µM)”, in test [1], the AUC worked out at 0.449 and the IC50 came out at 57.5 nM.

Take “ALL-SIL (T-cell leukaemia, suspension, top dose 10.24 µM)”: in test [1], the AUC stood at 0.112 and the IC50 stood at 47 nM.

Regarding “AM-38 (glioma, semi-adherent, top dose 1.28 µM)”, in test [1], the AUC was found to be 0.916 and the IC50 was over 1280 nM.

“AMO-1 (haematopoietic neoplasm, suspension, top dose 1.28 µM)”: in test [1], the AUC is 0.732 and the IC50 amounted to 326 nM.

Take “AN3-CA (endometrium, adherent, top dose 1.28 µM)”: in test [1], the AUC was 0.676 and the IC50 amounted to 262 nM.

On to “ARH-77 (myeloma, suspension, top dose 1.28 µM)”, for which, in test [1], the AUC came to 0.764 and the IC50 was 447 nM.

On to “ASH-3 (thyroid, adherent, top dose 1.28 µM)”, for which, in test [1], the AUC was 0.952 and the IC50 was over 1280 nM.

As to “ATN-1 (T-cell lymphoblastic leukaemia, suspension, top dose 10.24 µM)”, in test [1], the AUC was 0.199 and the IC50 was determined as 88.5 nM.

Consider “AU565 (breast, adherent, top dose 1.28 µM)”, for which, in test [1], the AUC amounted to 0.708 and the IC50 was found to be 334 nM.

“AsPC-1 (pancreas, adherent, top dose 1.28 µM)”: in test [1], the AUC is 0.887 and the IC50 was over 1280 nM.

For the cell line “BB30-HNC (head and neck, adherent, top dose 1.28 µM)”, in test [1], the AUC worked out at 0.897 and the IC50 was over 1280 nM.

On to “BB49-HNC (head and neck, adherent, top dose 1.28 µM)”, for which, in test [1], the AUC worked out at 0.957 and the IC50 is over 1280 nM.

For “BB65-RCC (kidney, adherent, top dose 1.28 µM)”, in test [1], the AUC came to 0.983 and the IC50 is over 1280 nM.

“BC-1 (B-cell lymphoma, suspension, top dose 1.28 µM)”: in test [1], the AUC turned out to be 0.754 and the IC50 stood at 375 nM.

“BC-3 (B-cell lymphoma, suspension, top dose 1.28 µM)”: in test [1], the AUC came out at 0.632 and the IC50 came out at 177 nM.

“COR-L32 (small cell lung carcinoma, suspension)”: in test [2], the AUC stood at 0.867 and the IC50 was over 10000 nM. Moreover, in test [3] (setting [4]), the AUC is 0.797 and the IC50 was over 20000 nM.

For the cell line H2810 (mesothelioma, adherent), the values for the AUC in test [2] and in test [3] (setting [4]) were 0.984 and 0.803, respectively. The IC50 in test [2] was over 10000 nM; in test [3] (setting [4]) it was 11100 nM.

Take “K-562 (chronic myeloid leukaemia, suspension)”: in test [3] (setting [4]), the AUC came to 0.845 and the IC50 stood at 13700 nM. Further, in test [3] (setting [5]), the AUC amounted to 0.711 and the IC50 amounted to 9620 nM.

As to “NCI-H1650 (lung adenocarcinoma, adherent)”, the AUC in test [2] was 0.979; in test [3] (setting [4]), 0.897. Besides, the IC50 in test [2] is over 10000 nM; in test [3] (setting [4]) it was over 20000 nM.
